Test results from article PMC13248759.
Changes are numbered by the printed parent chain. Results are given in words; binding and its absence hold for the method and conditions named. Binding seen in cells or lysates may run through a third protein. Some results given as binding are weak or reduced against the parent protein; the word gives no strength. For part of these data: Sequences can lack the tags named with a protein. One block for each substance: values may come before it.

Amino acid sequences for entries named in this document (tags omitted).
UniProt Q00987: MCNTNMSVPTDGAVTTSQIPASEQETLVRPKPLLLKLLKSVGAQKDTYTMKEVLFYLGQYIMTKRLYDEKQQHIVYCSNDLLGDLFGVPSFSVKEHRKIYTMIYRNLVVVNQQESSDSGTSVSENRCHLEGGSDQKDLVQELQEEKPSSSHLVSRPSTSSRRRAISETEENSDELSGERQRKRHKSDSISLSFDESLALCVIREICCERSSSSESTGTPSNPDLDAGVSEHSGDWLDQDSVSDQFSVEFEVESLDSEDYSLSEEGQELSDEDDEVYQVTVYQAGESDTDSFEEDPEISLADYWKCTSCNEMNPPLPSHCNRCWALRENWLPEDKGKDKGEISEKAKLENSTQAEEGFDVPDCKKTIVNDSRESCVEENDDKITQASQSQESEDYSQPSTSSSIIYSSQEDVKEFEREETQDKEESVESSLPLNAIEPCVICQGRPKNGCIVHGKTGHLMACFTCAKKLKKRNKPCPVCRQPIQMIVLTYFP
UniProt Q9Y5X1: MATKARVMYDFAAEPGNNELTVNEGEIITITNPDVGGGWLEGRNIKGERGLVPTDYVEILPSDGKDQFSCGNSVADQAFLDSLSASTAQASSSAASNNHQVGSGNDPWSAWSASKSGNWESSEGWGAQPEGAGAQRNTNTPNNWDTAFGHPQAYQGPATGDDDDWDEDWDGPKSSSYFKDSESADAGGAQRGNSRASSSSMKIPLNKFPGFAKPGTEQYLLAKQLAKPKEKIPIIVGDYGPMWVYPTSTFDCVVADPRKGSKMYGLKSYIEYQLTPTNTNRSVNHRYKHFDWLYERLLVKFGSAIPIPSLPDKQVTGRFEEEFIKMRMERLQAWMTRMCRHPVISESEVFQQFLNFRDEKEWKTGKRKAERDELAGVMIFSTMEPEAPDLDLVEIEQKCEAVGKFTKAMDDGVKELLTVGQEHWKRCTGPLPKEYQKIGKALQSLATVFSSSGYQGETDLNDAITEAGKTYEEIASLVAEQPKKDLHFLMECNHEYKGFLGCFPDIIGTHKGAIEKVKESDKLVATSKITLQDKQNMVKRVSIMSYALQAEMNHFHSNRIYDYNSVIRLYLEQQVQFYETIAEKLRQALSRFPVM
UniProt P63010: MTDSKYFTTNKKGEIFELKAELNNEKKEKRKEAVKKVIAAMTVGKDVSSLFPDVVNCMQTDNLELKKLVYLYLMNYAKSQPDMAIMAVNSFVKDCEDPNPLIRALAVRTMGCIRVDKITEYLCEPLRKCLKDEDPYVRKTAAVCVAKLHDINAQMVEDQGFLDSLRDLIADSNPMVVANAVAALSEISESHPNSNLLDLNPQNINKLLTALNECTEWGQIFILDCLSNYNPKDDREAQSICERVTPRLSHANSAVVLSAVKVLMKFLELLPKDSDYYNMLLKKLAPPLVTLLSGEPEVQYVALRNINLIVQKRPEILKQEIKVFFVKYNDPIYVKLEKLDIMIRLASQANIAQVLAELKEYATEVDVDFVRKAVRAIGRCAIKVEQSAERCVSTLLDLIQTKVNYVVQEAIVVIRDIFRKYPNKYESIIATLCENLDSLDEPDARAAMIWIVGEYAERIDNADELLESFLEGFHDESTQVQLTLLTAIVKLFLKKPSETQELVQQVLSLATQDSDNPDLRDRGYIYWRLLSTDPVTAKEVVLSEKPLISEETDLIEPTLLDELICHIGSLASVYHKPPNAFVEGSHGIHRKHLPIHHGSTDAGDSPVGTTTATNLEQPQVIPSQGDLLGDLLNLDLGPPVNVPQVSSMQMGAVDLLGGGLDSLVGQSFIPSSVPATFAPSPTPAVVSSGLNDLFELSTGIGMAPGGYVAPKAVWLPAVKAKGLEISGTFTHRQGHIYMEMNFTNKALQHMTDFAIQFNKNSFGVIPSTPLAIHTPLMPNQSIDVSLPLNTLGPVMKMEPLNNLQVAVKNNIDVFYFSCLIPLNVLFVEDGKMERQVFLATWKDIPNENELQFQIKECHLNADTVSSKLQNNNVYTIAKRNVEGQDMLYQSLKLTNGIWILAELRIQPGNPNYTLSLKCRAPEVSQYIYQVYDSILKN

Experiments:
[1] = biological target: T1, NUMB-1-FLAG (human) (UniProt P49757); test: co-IP; lysates of transfected HEK-293 cells in JS buffer (50 mM HEPES pH 7.5, 150 mM NaCl, 1% Triton X-100), anti-FLAG or anti-HA beads, 2 h at 4 C, immunoblot; in some panels SNX9 siRNA or graded amounts of SNX9-HA
T1 sequence: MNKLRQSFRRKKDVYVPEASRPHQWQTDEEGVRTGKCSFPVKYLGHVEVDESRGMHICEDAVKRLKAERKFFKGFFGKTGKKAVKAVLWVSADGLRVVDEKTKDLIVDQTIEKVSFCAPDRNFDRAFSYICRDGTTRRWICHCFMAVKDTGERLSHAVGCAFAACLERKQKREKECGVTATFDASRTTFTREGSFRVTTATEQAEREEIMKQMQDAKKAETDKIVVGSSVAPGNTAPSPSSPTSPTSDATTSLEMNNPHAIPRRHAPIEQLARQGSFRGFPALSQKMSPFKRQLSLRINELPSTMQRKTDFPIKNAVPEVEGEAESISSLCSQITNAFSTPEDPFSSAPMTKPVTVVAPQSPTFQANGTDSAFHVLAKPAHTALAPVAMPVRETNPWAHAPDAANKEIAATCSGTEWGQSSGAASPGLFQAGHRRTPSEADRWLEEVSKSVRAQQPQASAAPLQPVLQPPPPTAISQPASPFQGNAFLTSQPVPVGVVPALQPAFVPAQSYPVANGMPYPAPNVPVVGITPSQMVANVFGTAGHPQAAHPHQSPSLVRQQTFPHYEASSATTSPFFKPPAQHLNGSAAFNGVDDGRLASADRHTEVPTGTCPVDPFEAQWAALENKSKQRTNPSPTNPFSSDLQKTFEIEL

[2] = biological target: T2, NUMB-1-GFP11 (human) (UniProt P49757); test: split reporter; tripartite split-GFP: SNX9-GFP10 and NUMB-1-GFP11 transfected into HEK-293 cells stably expressing GFP 1-9 and KO for SNX9 and NUMB; GFP fluorescence imaged
T2 sequence: T1 sequence

[3] = biological target: T3, NUMB, endogenous (human (endogenous in HEK-293, MCF10A, HBL-100)) (UniProt P49757); test: co-IP; endogenous proteins from HEK-293 lysate in JS buffer, anti-NUMB (AB21) or anti-SNX9 antibody on Protein A/G magnetic beads, 2 h at 4 C, immunoblot; in some panels SNX9 or NUMB siRNA
T3 sequence: T1 sequence

[4] = biological target: T4, NUMB-1-F162V, FLAG-tagged (human) (UniProt P49757); test: co-IP; lysates of transfected HEK-293 cells in JS buffer (50 mM HEPES pH 7.5, 150 mM NaCl, 1% Triton X-100), anti-FLAG or anti-HA beads, 2 h at 4 C, immunoblot; in some panels SNX9 siRNA or graded amounts of SNX9-HA
T4 sequence: T1 sequence with F162V

[5] = biological target: T3, NUMB, endogenous (human (endogenous in HEK-293, MCF10A, HBL-100)); test: co-IP; endogenous proteins from MCF10A cells (Figure S1B,C)
[6] = biological target: T3, NUMB, endogenous (human (endogenous in HEK-293, MCF10A, HBL-100)); test: co-IP; endogenous proteins from HBL-100 cells (Figure S1B,C)

Substance: MDM2-HA (from UniProt Q00987 1-491)
binding [1]: binds

Substance: SNX9-HA (from UniProt Q9Y5X1 1-595)
binding [1]: binds

Next, values leading:

binding [1]: binds
Substance: AP2B1 (AP2 complex subunit beta-1), endogenous (from UniProt P63010 1-937)

binding [2]: binds
Substance: SNX9-WT-GFP10 (from UniProt Q9Y5X1 1-595)

binding [3]: binds
binding [4]: no binding
binding [1]: binds
binding [5]: binds
binding [6]: binds
Substance: sorting nexin 9 (SNX9), endogenous (from UniProt Q9Y5X1 1-595)
